In patent US20240384323A1, “METHOD FOR DETERMINING PROTEASE ACTIVITY IN A BIOLOGICAL SAMPLE” (CytomX Therapeutics, Inc., priority 2021, published 2024):

Assay: QZ assay in plasma samples (capillary electrophoresis immunoassay)
Format: in vitro ADME, human
Details: 48 hours at 37° C.
Description: Oregon Green-labeled QZ probe in phosphate-buffered saline (PBS) pH 7.2 were added to an equal volume of plasma from healthy donors (n=5), or patients with lung cancer (n=5) or gastric cancer (n=5) (ProteoGenex), to give a final concentration of 714 μg/mL in a total volume of 10 μL. The QZ probe and plasma mixtures were incubated for 48 hours at 37° C. in a humidified chamber, then diluted 1:50 in PBS and analyzed by a capillary electrophoresis immunoassay (CEI). Samples were separated for 33 minutes to resolve component cleavage products and intact QZ probe components (i.e., including intact LC bipartite polypeptide), then incubated for 1 hour with goat polyclonal antibodies against Oregon Green Dye (1/40; A11095 ThermoFisher). Target proteins were immunoprobed using a 30-minute incubation with a horseradish peroxidase-conjugated secondary antibody (1/40; 705-035-147, Jackson ImmunoResearch) and chemiluminescent substrate (PS-CS0; ProteinSimple). Peaks with a signal-to-noise ratio of ≥5 were considered positive. This signal-to-noise ratio was calculated by the Simple Western Compass software (ProteinSimple).
The QZ assay of the present invention can be used to detect protease activity in liquid as well as in solid biological samples. Here, an example is presented of the assessment of a QZ probe comprising an activatable anti-PD-1 antibody therapeutic (HC, SEQ ID NO: 15; LC, SEQ ID NO: 16) was used to assess protease activity in the plasma of heathy donors and patients with cancers. […] The lower limit of detection of cleaved LC was determined to be ≥1 μg/mL.

Measured: Probe Cleavage

B1: activatable anti-PD-1 antibody therapeutic: QZ probe comprising an activatable anti-PD-1 antibody (HC, SEQ ID NO: 15; LC, SEQ ID NO: 16), Oregon Green-labeled (antibody)
heavy: EVQLVESGGGLVQPGGSLRLSCAASGFTFSGYAMSWVRQAPGKGLEWVAYISNSGGNAHYADSVKGRFTISRDNSKNTLYLQMNSLRAEDTAVYYCTREDYGTSPFVYWGQGTLVTVSSASTKGPSVFPLAPCSRSTSESTAALGCLVKDYFPEPVTVSWNSGALTSGVHTFPAVLQSSGLYSLSSVVTVPSSSLGTKTYTCNVDHKPSNTKVDKRV[human IgG4 Fc with S228P (EU numbers) not shown]
light: QGQSGQGTSYCSIEHYPCNTHHGGGSSGGSISSGLLSGRSDNPGGGSDIQLTQSPSSLSASVGDRVTITCRASESVDAYGISFMNWFQQKPGKAPKLLIYAASNQGSGVPSRFSGSGSGTDFTLTISSMQPEDFATYYCQQSKDVPWTFGQGTKLEIKRTVAAPSVFIFPPSDEQLKSGTASVVCLLNNFYPREAKVQWKVDNALQSGNSQESVTEQDSKDSTYSLSSTLTLSKADYEKHKVYACEVTHQGLSSPVTKSFNRGEC
modifications: Oregon Green label
No cleavage: Plasma from Gastric Cancer Patients | Plasma from Healthy Human Donors | Plasma from Lung Cancer Patients
